This is an account of results in publication PMC12820563, “FoxP3 forms a head-to-head dimer in vivo and stabilizes its multimerization on adjacent microsatellites”.

The other results are listed elsewhere or left out.

The target in this assay is T1, MBP-FoxP1dN (Mus musculus, UniProt P58462 326-579).
T1 sequence: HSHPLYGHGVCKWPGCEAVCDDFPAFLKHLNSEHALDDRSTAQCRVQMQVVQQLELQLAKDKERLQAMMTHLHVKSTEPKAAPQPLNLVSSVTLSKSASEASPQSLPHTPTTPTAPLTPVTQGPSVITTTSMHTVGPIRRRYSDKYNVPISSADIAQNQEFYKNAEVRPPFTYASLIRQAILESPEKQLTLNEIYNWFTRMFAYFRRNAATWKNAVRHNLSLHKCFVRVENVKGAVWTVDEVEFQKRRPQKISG
The assay is described as follows: PD-seq (MBP pull-down with sequencing); 20 mM Tris-HCl pH 7.5, 100 mM NaCl, 1.5 mM MgCl2, 0.4 uM protein, 0.1 uM dsDNA library, 30 min, room temperature, amylose pull-down; high values mean tight binding. The following applies: protein: recombinant; tags: His6-MBP; chain copies: 2; dsDNA, one strand shown. The procedure, abridged: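 E. coli-expressed mouse FoxP3 or FoxP1 fragment, N-terminus removed and tagged with His6-MBP, was used at 0.4 µM against 0.1 µM of a Klenow-filled degenerate double-stranded DNA library. After 30 min at room temperature in Tris pH 7.5 buffer with NaCl and MgCl2, complexes were pulled down on amylose resin and washed three times. Binding is pull-down over input reads-per-million enrichment from pooled replicates of the proteinase K-released, PCR-barcoded, Illumina-sequenced DNA.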
For the sequence “GATGATTGTTCTCCCAGCTGATGAATTACAAAATTCGAGTAAACAAATTTTCCTAATCTTTCTGTTCAAGCGCCATCTAC”, the binding signal was 1.37 RPM ratio (pull-down/input). Next, “GATGATTGTTCTCCCAGCTGATGAATTGTACAGGTCGAGTAAACAAATTTTCCTAATCTTTCTGTTCAAGCGCCATCTAC”: 0.868 RPM ratio (pull-down/input). Turning to “GATGATTGTTCTCCCAGCTGATGAATTACGCTTTTCGAGTAAACAAATTTTCCTAATCTTTCTGTTCAAGCGCCATCTAC”, the binding signal was 1.18 RPM ratio (pull-down/input).

With “GATGATTGTTCTCCCAGCTGATGAATTATCAAGTTCGAGTAAACAAATTTTCCTAATCTTTCTGTTCAAGCGCCATCTAC”, the binding signal is 1.04 RPM ratio (pull-down/input). Next, “GATGATTGTTCTCCCAGCTGATGAATTCGAGGAGTCGAGTAAACAAATTTTCCTAATCTTTCTGTTCAAGCGCCATCTAC”: 0.715 RPM ratio (pull-down/input); “GATGATTGTTCTCCCAGCTGATGAATTTAGGCCGTCGAGTAAACAAATTTTCCTAATCTTTCTGTTCAAGCGCCATCTAC”: 0.94 RPM ratio (pull-down/input). Turning to “GATGATTGTTCTCCCAGCTGATGAATTCGGGTGCTCGAGTAAACAAATTTTCCTAATCTTTCTGTTCAAGCGCCATCTAC”, the binding signal was 0.765 RPM ratio (pull-down/input).

In the case of “GATGATTGTTCTCCCAGCTGATGAATTCAGCGGCTCGAGTAAACAAATTTTCCTAATCTTTCTGTTCAAGCGCCATCTAC”, the binding signal was 0.756 RPM ratio (pull-down/input). The result for “GATGATTGTTCTCCCAGCTGATGAATTAATCGCTTCGAGTAAACAAATTTTCCTAATCTTTCTGTTCAAGCGCCATCTAC” reads 1.05 RPM ratio (pull-down/input). The result for “GATGATTGTTCTCCCAGCTGATGAATTCATGCAATCGAGTAAACAAATTTTCCTAATCTTTCTGTTCAAGCGCCATCTAC” reads 1.26 RPM ratio (pull-down/input); that for “GATGATTGTTCTCCCAGCTGATGAATTGTTGCGTTCGAGTAAACAAATTTTCCTAATCTTTCTGTTCAAGCGCCATCTAC”, 1.55 RPM ratio (pull-down/input).

With “GATGATTGTTCTCCCAGCTGATGAATTTAACGTGTCGAGTAAACAAATTTTCCTAATCTTTCTGTTCAAGCGCCATCTAC”, the binding signal is 0.967 RPM ratio (pull-down/input).

Regarding “GATGATTGTTCTCCCAGCTGATGAATTTAGTATGTCGAGTAAACAAATTTTCCTAATCTTTCTGTTCAAGCGCCATCTAC”, the binding signal was 1.09 RPM ratio (pull-down/input). Next, “GATGATTGTTCTCCCAGCTGATGAATTCATGATATCGAGTAAACAAATTTTCCTAATCTTTCTGTTCAAGCGCCATCTAC”: 1.06 RPM ratio (pull-down/input); “GATGATTGTTCTCCCAGCTGATGAATTTTTCCTTTCGAGTAAACAAATTTTCCTAATCTTTCTGTTCAAGCGCCATCTAC”: 0.883 RPM ratio (pull-down/input). The result for “GATGATTGTTCTCCCAGCTGATGAATTTTCGCTCTCGAGTAAACAAATTTTCCTAATCTTTCTGTTCAAGCGCCATCTAC” reads 0.91 RPM ratio (pull-down/input); that for “GATGATTGTTCTCCCAGCTGATGAATTAGTGCGTTCGAGTAAACAAATTTTCCTAATCTTTCTGTTCAAGCGCCATCTAC”, 1.1 RPM ratio (pull-down/input). Next, “GATGATTGTTCTCCCAGCTGATGAATTTGTAGGGTCGAGTAAACAAATTTTCCTAATCTTTCTGTTCAAGCGCCATCTAC”: 0.882 RPM ratio (pull-down/input); “GATGATTGTTCTCCCAGCTGATGAATTGTAAAGCTCGAGTAAACAAATTTTCCTAATCTTTCTGTTCAAGCGCCATCTAC”: 0.873 RPM ratio (pull-down/input); “GATGATTGTTCTCCCAGCTGATGAATTCCGCCAGTCGAGTAAACAAATTTTCCTAATCTTTCTGTTCAAGCGCCATCTAC”: 0.747 RPM ratio (pull-down/input). Turning to “GATGATTGTTCTCCCAGCTGATGAATTTTAGTAATCGAGTAAACAAATTTTCCTAATCTTTCTGTTCAAGCGCCATCTAC”, the binding signal was 1.75 RPM ratio (pull-down/input). The result for “GATGATTGTTCTCCCAGCTGATGAATTCTAGACGTCGAGTAAACAAATTTTCCTAATCTTTCTGTTCAAGCGCCATCTAC” reads 0.874 RPM ratio (pull-down/input); that for “GATGATTGTTCTCCCAGCTGATGAATTCGCCTTATCGAGTAAACAAATTTTCCTAATCTTTCTGTTCAAGCGCCATCTAC”, 0.88 RPM ratio (pull-down/input); that for “GATGATTGTTCTCCCAGCTGATGAATTTCGTCGGTCGAGTAAACAAATTTTCCTAATCTTTCTGTTCAAGCGCCATCTAC”, 0.849 RPM ratio (pull-down/input).

Consider “GATGATTGTTCTCCCAGCTGATGAATTCCATCTTTCGAGTAAACAAATTTTCCTAATCTTTCTGTTCAAGCGCCATCTAC”, for which the binding signal was 0.908 RPM ratio (pull-down/input). The result for “GATGATTGTTCTCCCAGCTGATGAATTTTCAGATTCGAGTAAACAAATTTTCCTAATCTTTCTGTTCAAGCGCCATCTAC” reads 0.839 RPM ratio (pull-down/input); that for “GATGATTGTTCTCCCAGCTGATGAATTTCTACTCTCGAGTAAACAAATTTTCCTAATCTTTCTGTTCAAGCGCCATCTAC”, 0.863 RPM ratio (pull-down/input).

Turning to “GATGATTGTTCTCCCAGCTGATGAATTGGTAACATCGAGTAAACAAATTTTCCTAATCTTTCTGTTCAAGCGCCATCTAC”, the binding signal was 1.2 RPM ratio (pull-down/input). The result for “GATGATTGTTCTCCCAGCTGATGAATTTTTCCACTCGAGTAAACAAATTTTCCTAATCTTTCTGTTCAAGCGCCATCTAC” reads 0.905 RPM ratio (pull-down/input); that for “GATGATTGTTCTCCCAGCTGATGAATTTCTTGAATCGAGTAAACAAATTTTCCTAATCTTTCTGTTCAAGCGCCATCTAC”, 0.925 RPM ratio (pull-down/input); that for “GATGATTGTTCTCCCAGCTGATGAATTGGGCCATTCGAGTAAACAAATTTTCCTAATCTTTCTGTTCAAGCGCCATCTAC”, 0.864 RPM ratio (pull-down/input). “GATGATTGTTCTCCCAGCTGATGAATTCCACGGATCGAGTAAACAAATTTTCCTAATCTTTCTGTTCAAGCGCCATCTAC”: the binding signal is 0.756 RPM ratio (pull-down/input).
